Data on 33 variants can be found in the GPR68 mutational scans of Howard et al. (2025).

The least precise scores are not listed. The source holds two more conditions with little spread; they are left out. In variant names, del marks residues removed and ins residues inserted between the two positions. For some of these results: The concentration of ogerin is not given here.

The labels stand for the following.
B1: GPR68, Q15743 (parent)
chain: MGNITADNSSMSCTIDHTIHQTLAPVVYVTVLVVGFPANCLSLYFGYLQIKARNELGVYLCNLTVADLFYICSLPFWLQYVLQHDNWSHGDLSCQVCGILLYENIYISVGFLCCISVDRYLAVAHPFRFHQFRTLKAAVGVSVVIWAKELLTSIYFLMHEEVIEDENQHRVCFEHYPIQAWQRAINYYRFLVGFLFPICLLLASYQGILRAVRRSHGTQKSRKDQIQRLVLSTVVIFLACFLPYHVLLLVRSVWEASCDFAKGVFNAYHFSLLLTSFNCVADPVLYCFVSETTHRDLARLRGACLAFLTCSRTGRAREAYPLGAPEASGKSGAQGEEPELLTKLHPAFQTPNSPGSGGFPTGRLA

Variants of B1 are the subject of series [1]. The experiment in a line: cAMP reporter score (Enrich2 score, wild type = 0); higher = more signal; HEK293T, FACS bins.
The variants in series [2] derive from B1. Put plainly: surface expression score (Enrich2 score, wild type = 0); higher = more signal; HEK293T, FACS bins.

In the case of A239N, the cAMP reporter score was -0.567 in series [1] (pH 5.5); -0.637 in series [1] (pH 6); -1.61 in series [1] (pH 6, modulator: ogerin); -0.259 in series [1] (pH 6.5, modulator: ogerin). Further, the surface expression score in series [2] is -2.6.
Turning to A239P, the cAMP reporter score is -1.35 in series [1] (pH 5.5); -0.673 in series [1] (pH 6); -1.41 in series [1] (pH 6.5, modulator: ogerin). Moreover, the surface expression score in series [2] was -1.8.
In the case of A239T, the cAMP reporter score is 0.013 in series [1] (pH 5.5); -0.344 in series [1] (pH 6, modulator: ogerin); -0.456 in series [1] (pH 6.5, modulator: ogerin). Moreover, the surface expression score in series [2] was 0.7.
A239W: the cAMP reporter score in series [1] (pH 5.5) is 0.489; in series [1] (pH 6), 0.204; in series [1] (pH 6, modulator: ogerin), 0.26; in series [1] (pH 6.5, modulator: ogerin) it was -0.07. Besides, in series [2], the surface expression score is -1.42.
A239Y: the cAMP reporter score was -0.875 in series [1] (pH 5.5); -0.173 in series [1] (pH 6); -1.08 in series [1] (pH 6.5, modulator: ogerin). Moreover, the surface expression score in series [2] is -2.73.
A239H: the cAMP reporter score is -0.601 in series [1] (pH 5.5) and -0.689 in series [1] (pH 6, modulator: ogerin). Moreover, the surface expression score in series [2] was -1.1.
Regarding A239V, the cAMP reporter score in series [1] (pH 5.5) is 1.68; in series [1] (pH 6), 2.01; in series [1] (pH 6, modulator: ogerin) it was 1.5; in series [1] (pH 6.5, modulator: ogerin), 1.15. In addition, the surface expression score in series [2] was found to be 1.94.
As for A239L, the cAMP reporter score in series [1] (pH 5.5) was 1.14; in series [1] (pH 6) it was 2.84; in series [1] (pH 6, modulator: ogerin), 0.491; in series [1] (pH 6.5, modulator: ogerin), 3.19. In addition, the surface expression score in series [2] was found to be 1.02.
For the variant A239R, the cAMP reporter score in series [1] (pH 5.5) was -0.431; in series [1] (pH 6), -0.582; in series [1] (pH 6, modulator: ogerin), -0.651. Besides, in series [2], the surface expression score was -0.425.
For A239G, the cAMP reporter score is 0.036 in series [1] (pH 5.5); -0.738 in series [1] (pH 6); 0.144 in series [1] (pH 6, modulator: ogerin); -0.033 in series [1] (pH 6.5, modulator: ogerin). Also, the surface expression score in series [2] stood at 0.745.
On to A239C, for which the cAMP reporter score in series [1] (pH 5.5) was determined as 1.26; in series [1] (pH 6) it was 0.82; in series [1] (pH 6, modulator: ogerin) it was 1.73; in series [1] (pH 6.5, modulator: ogerin) it was 1.38. Also, the surface expression score in series [2] is 1.41.
Consider A239S, for which the cAMP reporter score in series [1] (pH 5.5) is 0.012; in series [1] (pH 6), -0.764; in series [1] (pH 6, modulator: ogerin), -0.7; in series [1] (pH 6.5, modulator: ogerin) it was -0.522. The surface expression score in series [2] amounted to 0.15.
For A239Q, the cAMP reporter score was -1.23 in series [1] (pH 5.5); -0.196 in series [1] (pH 6); -1.61 in series [1] (pH 6, modulator: ogerin); -1.07 in series [1] (pH 6.5, modulator: ogerin).
On to A239M, for which the cAMP reporter score in series [1] (pH 5.5) is 0.576; in series [1] (pH 6), 0.44; in series [1] (pH 6, modulator: ogerin) it was 1.33; in series [1] (pH 6.5, modulator: ogerin), 1.43. In series [2], the surface expression score came to 0.731.
For A239E, in that order: -0.974, -0.138, -1.01, -0.958 and -0.815.
As to A239I, the cAMP reporter score amounted to 1.04 in series [1] (pH 5.5); 2.33 in series [1] (pH 6); 2.35 in series [1] (pH 6.5, modulator: ogerin). The surface expression score in series [2] came out at 2.64.
For F237S, the cAMP reporter score was -1.08 in series [1] (pH 5.5); -0.996 in series [1] (pH 6, modulator: ogerin); -0.549 in series [1] (pH 6.5, modulator: ogerin). Further, in series [2], the surface expression score was 0.525.
As to F237Q, the cAMP reporter score in series [1] (pH 5.5) is -0.475; in series [1] (pH 6), -1.48; in series [1] (pH 6, modulator: ogerin), -1.34; in series [1] (pH 6.5, modulator: ogerin), -1.21. Moreover, the surface expression score in series [2] is -0.626.
For F237T, in that order: 0.384, -0.3, -0.084, -1.44 and 0.449.
For F237L the same measures were 0.375, 1.12, 0.365, 0.95 and -0.674.
For the variant F237G, the cAMP reporter score in series [1] (pH 5.5) was -0.175; in series [1] (pH 6.5, modulator: ogerin), -1.09. In addition, the surface expression score in series [2] came out at 1.25.
On to F237Y, for which the cAMP reporter score was -0.21 in series [1] (pH 5.5); 0.192 in series [1] (pH 6); 1.27 in series [1] (pH 6, modulator: ogerin); 1.63 in series [1] (pH 6.5, modulator: ogerin).
In the case of F237N, the cAMP reporter score was 1.06 in series [1] (pH 5.5); 0.472 in series [1] (pH 6, modulator: ogerin); -0.854 in series [1] (pH 6.5, modulator: ogerin). The surface expression score in series [2] was -0.807.
With F237I, the cAMP reporter score in series [1] (pH 5.5) is -0.121; in series [1] (pH 6), 1.39; in series [1] (pH 6, modulator: ogerin) it was 0.368; in series [1] (pH 6.5, modulator: ogerin) it was 0.908. Moreover, the surface expression score in series [2] was -0.157.
Take F237C: the cAMP reporter score in series [1] (pH 5.5) was 0.578; in series [1] (pH 6.5, modulator: ogerin), -1.17. Further, the surface expression score in series [2] is 0.892.
As for F237D, the cAMP reporter score in series [1] (pH 5.5) was -0.485; in series [1] (pH 6), -0.58; in series [1] (pH 6, modulator: ogerin), -0.692.
As for F237V, the cAMP reporter score was -0.31 in series [1] (pH 5.5); 0.147 in series [1] (pH 6); -0.539 in series [1] (pH 6, modulator: ogerin); -0.778 in series [1] (pH 6.5, modulator: ogerin). Moreover, the surface expression score in series [2] came out at 0.1.
Turning to F237W, the cAMP reporter score in series [1] (pH 5.5) came to 0.193; in series [1] (pH 6, modulator: ogerin), 0.187; in series [1] (pH 6.5, modulator: ogerin) it was 0.983. Besides, the surface expression score in series [2] is -2.62.
Consider F237K, for which the cAMP reporter score was 0.205 in series [1] (pH 5.5); 1.15 in series [1] (pH 6); -0.615 in series [1] (pH 6, modulator: ogerin); 0.033 in series [1] (pH 6.5, modulator: ogerin). Besides, the surface expression score in series [2] was -0.104.
In the case of F237P, the cAMP reporter score in series [1] (pH 5.5) is -0.379; in series [1] (pH 6, modulator: ogerin) it was 1.14; in series [1] (pH 6.5, modulator: ogerin), 0.894. Also, the surface expression score in series [2] was -0.987.
For F237E, in that order: -0.001, -1.26, -0.171 and -0.93.
For F237M, the cAMP reporter score is -0.088 in series [1] (pH 5.5); -1.41 in series [1] (pH 6); -0.688 in series [1] (pH 6, modulator: ogerin); -1.56 in series [1] (pH 6.5, modulator: ogerin). Also, in series [2], the surface expression score came to 0.353.
For F237A the same measures were 0.452, -0.959, -0.869, -0.89 and 1.69.
